The list shows a part of the results.

Binding signal data for 22 molecules are collected here from paper PMC12136788.

B1: 76477308_76478351_561_CDS_ENSMUSG00000002731_ENSMUST00000002808|mouse|control|control (ssRNA)
RNA: GGGAGUUCUACAGUCCGACGAUCAGCCGGUCCUCCUUCCUGGGAAAGGGUAUAUUCAGGAAGUCGCCAGCCAUGGUGAAUUGCUAAUUCCUGUAAUGAGCCAAUUGGAUUCAGCUGGUUCUUCGGCUGUUUGGAUGGAUCAGGCAACAGAGGAUUGAGCAUCA
B2: chr3:119236079:119236080:+_ENSG00000113845_ENST00000264244|hu_mus|FALSE|FALSE (ssRNA)
RNA: GGGAGUUCUACAGUCCGACGAUCGGCCUUCCAUUCCUUCUGCCUUCUCUCCUGAACCGUCUCACCGGAGUACUUCUCCAGGGCCAUCAGCAAGCUUCCCAUGGGCGCGCCCAACAACGCUCCAAUUAUACUACCAGCCACCAGCAACAGAGGAUUGAGCAUCA
B3: chr5:37310712:37310713:-_ENSG00000113569_ENST00000381843|hu_hu|FALSE|FALSE (ssRNA)
RNA: GGGAGUUCUACAGUCCGACGAUCACAAAUUGCAUCAUCAGUGCUAUAUAGAAGUGGGCAGAUAUCCUGUAAAUGUAAACUAAUGCCAUCAACAGCGGCAUUAUCUCUGAUGUAGCAGUUGAUAAGAGAAGCAAUUAAUGCCCCCAACAGAGGAUUGAGCAUCA
B4: 100481045_100481165_377_5pUTR_ENSMUSG00000014195_ENSMUST00000014339|mouse|control|control (ssRNA)
RNA: GGGAGUUCUACAGUCCGACGAUCUCCGCUUGGGGCCAGAGCGGCCUUCCAUCCCUGGAGGUCCACGGUGGUCUCCGCGCUGGGGCGGGGGCCCAGGGACGGUUCCUGUGCGUAGGGGGCGCCACUUUACCCGUGAAUAGGAGGCAACAGAGGAUUGAGCAUCA
B5: 84442072_84442192_1816_CDS_ENSMUSG00000036766_ENSMUST00000049126|mouse|control|control (ssRNA)
RNA: GGGAGUUCUACAGUCCGACGAUCUGUGAAGCCUGGGCUGCAGCUGCAGGUGAAAUGCACGCCAUCCACGUAGCAAGUGCCAUUGUUCUGGCAUGGAGAGGACAUGCAAGGGUCCACCUUCUCUUCACAAGCGGAGCCGAAGUACAACAGAGGAUUGAGCAUCA
B6: 102340991_102341111_3048_CDS_ENSMUSG00000034621_ENSMUST00000143842|mouse|control|control (ssRNA)
RNA: GGGAGUUCUACAGUCCGACGAUCCUUUCUGGAGCCUGAUCUCUGAGAAGGGCUCCUGGUGCUGCGGCUCCGGUCCCGGCUAUAGCUUCGGCUUCGCUGCCAGCUGUGGGCUGUGGUGCUGCGACUUCUCCUCUUGCUUCGACUCAACAGAGGAUUGAGCAUCA
B7: chrX:71549400:71549401:+_ENSMUSG00000019087_ENSMUST00000019231|mus_hu|mus_mus_mus_hu_False|18_58 (ssRNA)
RNA: GGGAGUUCUACAGUCCGACGAUCGCAGUAGGAAGAGGGAAGCUCUUCAGUCCAGUGCGCUGCAGGGUGGGAAAGCACAACCUAGACCACCGUCCCACCCUCAACCCCCCCACUGGCAUGUCACACAACAAUCUGGGUCAAAGACAACAGAGGAUUGAGCAUCA
B8: chr19:29217640:29217641:+_ENSMUSG00000024785_ENSMUST00000064393|mus_hu|FALSE|FALSE (ssRNA)
RNA: GGGAGUUCUACAGUCCGACGAUCCUUGGUUUCAAUUUUAAACAUAAUCUGGAAAAAGCUCUUCAAAUGCCGCAAAAAUUCUAUCGUGUAGGGAGAGAGAGGGCCUAGCAGGACUUUGGAAACAUCCUGCUGUCCAAGGGUCAUCAACAGAGGAUUGAGCAUCA
B9: chr8:117878989:117878990:-_ENSG00000164754_ENST00000297338|hu_hu|hu_hu_hu_mus_True|1_28 (ssRNA)
RNA: GGGAGUUCUACAGUCCGACGAUCCCAGAGGCCCUCGUUUACUGAGGACAAAAUGUGCGUAGAACAUUUUUCUUAUUUGCUAUGAAAUAAGAAGAAACCUGGAUCUCCCGCUGGGAGCGGGAGGGGUGGGUGGCCCGGGGGAGGCAACAGAGGAUUGAGCAUCA
B10: chr16:46990514:46990515:-_ENSG00000069345_ENST00000317089|hu_hu|FALSE|FALSE (ssRNA)
RNA: GGGAGUUCUACAGUCCGACGAUCAACCCAUUGUGUGCAAAGCCCAUUUUUUUCCAUGCAUCUAAAUGAUAGAUACAGGCUAUGAAAUUCUUUAUUCUAUUUGUAGCAGCUUAUGCAGGUGCAGCCAAACACAAAGCUUCAGGACAACAGAGGAUUGAGCAUCA
B11: chr20:32246340:32246341:-_ENSG00000125967_ENST00000246190|hu_mus|motif|central (ssRNA)
RNA: GGGAGUUCUACAGUCCGACGAUCUCUCCAGGAGGCUUCAUCCUGCCAGAACUCAUACAGGGUGAAAGCAGCAUUGUCGGGCAUCUUCUGGGCAGACACAUGCAGACAAUGGCUUUGGGCCCCUGUGAAGUUCAUGUAGCAGCACAACAGAGGAUUGAGCAUCA
B12: 88635751_88649847_573_CDS_ENSG00000107779_ENST00000372037|human|control|control (ssRNA)
RNA: GGGAGUUCUACAGUCCGACGAUCGCCAUGAAGCAUACUAUCCAGAUUCUGUCCUUGAACACGAGAAAUGAUGAACAAAUAGGCUCCCAAUAAUCUGAUGUAAAUGUAUAGCUGAGGCAUUGUUCAAUUGUAAUGUUUCCUGUGCAACAGAGGAUUGAGCAUCA
B13: chr5:134191040:134191041:+_ENSG00000181904_ENST00000394976|hu_hu|FALSE|FALSE (ssRNA)
RNA: GGGAGUUCUACAGUCCGACGAUCAAAAGCAGCAGUGCCACAGCCAUAACCAAGAUCGGCAAGACGGGAUAGAGCUUUAAUGCUACCUGGAGGUCUGCCUGGGCUGACUUUGUAUCCCGCAGCUUUAGUUGUCCCCAAAGGUCUCAACAGAGGAUUGAGCAUCA
B14: chr17:64801638:64801639:+_ENSG00000154229_ENST00000413366|hu_mus|hu_hu_hu_mus_False|38_38 (ssRNA)
RNA: GGGAGUUCUACAGUCCGACGAUCUAUAUAUAUAUAUACAUAUGUACACAUAUAUAGUAAAACCCUAGUUAAACGUGUAAAGUAGCCAUUCAUUUUUGAAAUUUUAUCUACAUUAAAAAAUUAAUAUAUCUGAUAGAGUGCCAGCAACAGAGGAUUGAGCAUCA
B15: chr2:187371472:187371473:+_ENSG00000065548_ENST00000337859|hu_mus|motif|central (ssRNA)
RNA: GGGAGUUCUACAGUCCGACGAUCACUGGCCACAGUGAUACCUGUCUCUUCUACAUCUCUUGGGACGUACAGGCUUAUAUCGGUGUCAUUUACACCCAUAGAAUCAUCAACCUCAUCACCACCUGUUCCCUGAAUGUAACGGGUCAACAGAGGAUUGAGCAUCA
B16: chr16:37881740:37881741:+_ENSMUSG00000034158_ENSMUST00000078717|mus_mus|motif|central (ssRNA)
RNA: GGGAGUUCUACAGUCCGACGAUCAGACCGAUCAACUGAAUUUUGAACUGCCAUUCACAAUAAAUUACACUCAAAGAAUCGGAACAGGGAACUGGACUCAUUCCUGCCGAAUGUGUAGACAGAAUGCAAAACCUUUCUUUCACACAACAGAGGAUUGAGCAUCA
B17: chr4:144460044:144460045:+_ENSG00000153147_ENST00000283131|hu_mus|hu_hu_hu_mus_False|28_48 (ssRNA)
RNA: GGGAGUUCUACAGUCCGACGAUCACGGUCCAUAGCCUGAAGAUCAACUUGCGGAUUCCAAUCUGAGUCAUAUAAAAUGACUACAUCAGCAGUCGCAAGAUUGAUGCCAAGACCACCAGCACGUGUGCUUAGCAUAAAUACAAACAACAGAGGAUUGAGCAUCA
B18: chr2:55462594:55462595:+_ENSG00000143947_ENST00000402285|hu_hu|FALSE|FALSE (ssRNA)
RNA: GGGAGUUCUACAGUCCGACGAUCUGCCAUAAACACCCCAGCACCACAUUCAUCAGAAGGGCACUCUCGACGAAGGCGACUAAUUUUGCCAUUCUCAUCCACCUUAUAAUAUUUCAGGACAGCCAGCUUAACCUUCUUUCUCUUCAACAGAGGAUUGAGCAUCA
B19: chr7:65705844:65705845:+_ENSG00000169902_ENST00000304842|hu_mus|hu_hu_hu_mus_False|58_58 (ssRNA)
RNA: GGGAGUUCUACAGUCCGACGAUCAAACGGAUCUUUGUUACAUAAAUAAGGUGCCGGCUCCCCAUGUUUAACAAUGAUUUCUAGUAAGAAGGCUUGCAUGGCAGAAUCUAGCACUUCAUCUGUGACACCCGCCUCAUCCAAGCGCAACAGAGGAUUGAGCAUCA
B20: chr16:13788901:13788902:+_ENSMUSG00000022682_ENSMUST00000023363|mus_mus|FALSE|FALSE (ssRNA)
RNA: GGGAGUUCUACAGUCCGACGAUCGAUGUUUAUAAGUUGCUCAAAGUCUUUUGUCAAGUACAUGACAGAGGAACGAAAUUCUAGUAGCCAGUUAAUGAUCUGGUCAUCCUUUAUAUCAGGAUCAGACAGCUGGUUCUUCAACAACAACAGAGGAUUGAGCAUCA
B21: chr5:32794366:32794367:+_ENSMUSG00000014956_ENSMUST00000015100|mus_mus|motif|central (ssRNA)
RNA: GGGAGUUCUACAGUCCGACGAUCAGAAGAGAGCCAGCUAUCCAAGGCUUGUCAAAAAGGAUUCUCAUGUUCUGUGAAUCGGAAAACAAACAAACAACAAAAACCCCAAAAAACAAAACCAAUGCAGGUGAGGGUAAUACCAGACAACAGAGGAUUGAGCAUCA
B22: chr1:23645023:23645024:-_ENSG00000125944_ENST00000302271|hu_hu|FALSE|FALSE (ssRNA)
RNA: GGGAGUUCUACAGUCCGACGAUCCUUAGCCAUGACUUCUGGAUCUGGUUCUUCCACAGGGUCAGCCCAUUCAACUGUAACUACAUUUCCCCACACUUUUACUUUUCCACUCAUCAGCCGGCGUCUGGCUUGUGCUGCUGACUUCAACAGAGGAUUGAGCAUCA

The assay has as its target T1, UNK ZnF1-3 (human, UniProt Q9C0B0 31-174).
T1 sequence: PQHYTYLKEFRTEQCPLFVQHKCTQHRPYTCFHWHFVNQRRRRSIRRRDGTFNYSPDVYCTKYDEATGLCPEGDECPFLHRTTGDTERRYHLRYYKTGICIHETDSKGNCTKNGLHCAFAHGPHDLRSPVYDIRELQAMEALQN
Nature of the assay: nsRBNS (natural sequence RNA bind-n-seq); RBNS binding buffer (assumed for nsRBNS): 25 mM Tris pH 7.5, 150 mM KCl, 3 mM MgCl2, 0.01% Triton X-100, 500 ug/ml BSA, 20 U/ml SUPERase-In, 4 C; UNK is unkempt and MSI1 is Musashi-1; names of the RNAs are library labels; protein concentration not given here; high values mean tight binding.
On to B1, for which the binding signal was 0.806 enrichment R.

In turn, B2 returned a binding signal of 1.24 enrichment R.

Molecule B3 gave a binding signal of 1.29 enrichment R.

B4 returned a binding signal of 0.549 enrichment R.

As to B5, the binding signal was determined as 0.924 enrichment R.

Regarding B6, the binding signal was 0.456 enrichment R.

For the molecule B7, the binding signal turned out to be 1.33 enrichment R.

Molecule B8 displayed a binding signal of 1.61 enrichment R.

In turn, B9 showed a binding signal of 1.82 enrichment R.

B10 displayed a binding signal of 1.25 enrichment R.

For the molecule B11, the binding signal was found to be 0.687 enrichment R.

For the molecule B12, the binding signal was found to be 1.38 enrichment R.

Consider B13, for which the binding signal is 1.39 enrichment R.

The molecule B14 gave a binding signal of 1.94 enrichment R.

Take B15: the binding signal is 0.654 enrichment R.

B16 registered a binding signal of 1.15 enrichment R.

B17 yielded a binding signal of 0.584 enrichment R.

For B18, the binding signal was found to be 1.43 enrichment R.

B19 returned a binding signal of 0.641 enrichment R.

In turn, B20 returned a binding signal of 0.809 enrichment R.

B21 showed a binding signal of 1.33 enrichment R.

B22: the binding signal was found to be 0.641 enrichment R.
